The list shows a part of the results.
tested on: T1, C. trachomatis L2/434/Bu expressing GFP (CTL2-GFP); set-up: species or system HeLa; C. trachomatis total inclusion area by high-content imaging, normalised to DMSO; conditions: total inclusion area; 28.5 h, 10 µM; inhibitor
T1 construct: L2/434/Bu GFP intracellular growth in HeLa cells
Summary of the method: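 Following bulk GFP and resorufin fluorescence reads, infected cells were fixed, Hoechst-stained and imaged on a high-content platform. Inclusion total area and number per well served as growth proxies; nuclei counts indicated host viability. MICs were derived as for the fluorescence assay.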

| SMILES | % of control remaining |
| --- | --- |
| O=C(CN1CCC(c2ccccc2F)CC1)N1CCCCC1 [CBK283577] | 88.8797 |
| Cc1nn(CC(=O)N2CCCC(C)C2)c(=O)c2cc3occc3n12 (stereo not shown) [CBK283623] | 80.3778 |
| Cc1nn(CC(=O)N2CCCCCC2)c(=O)c2cc3ccsc3n12 [CBK284060] | 85.8088 |
| CCN(CC)C(=O)CN(CCc1ccc(OC)c(OC)c1)C(=O)NCCCSC [CBK158725] | 96.125 |
| Clc1ccc(Nc2nnns2)cc1Cl [CBK005211] | 88.36 |
| Cc1cc(C(=O)NCC[S+](C)[O-])c(-n2cccc2)s1 (stereo not shown) [CBK283305] | 95.3884 |
| Cc1cc(O)n(-c2cc(-c3ccccc3)nc(-c3ccccc3)n2)n1 [CBK262014] | 109.32 |
| CCc1nc2ccc(C(=O)NCCc3c[nH]c4ccccc34)cn2c1N(C)Cc1ccncc1 [CBK145636] | 95.7513 |
| N=C(N)NS(=O)(=O)c1ccc(N/C=C\C(=O)c2ccncc2)cc1 [CBK264185] | 113.021 |
| COc1cccc(CSc2ccc(CN3CCOCC3)cc2F)c1 [CBK174976] | 72.5156 |
| COCCCN1C(=O)c2[nH]nc(-c3cc(C)c(C)cc3O)c2C1c1ccc(SC)cc1 (stereo not shown) [CBK268884] | 84.1139 |
| O=C(CCSCc1nc2sc3c(c2c(=O)[nH]1)CCC3)N1CCC1 [CBK304536] | 92.3409 |
| CC(C)C(=O)N1CCC[C@@H](Cn2nc(-c3cccs3)ccc2=O)C1 [CBK282317] | 101.538 |
| O=C(NC1CCS(=O)(=O)C1)c1cc2ccc(OC(F)(F)F)cc2[nH]1 (stereo not shown) [CBK305754] | 79.3107 |
| Cc1ccc(NC(=O)C2CC=CCC2C(=O)O)cc1NC(=O)c1ccc(Cl)cc1 (stereo not shown) [CBK268980] | 92.7492 |
| Cc1ccc(C)c(C2C(C(=O)c3ccccc3Cl)=C(O)C(=O)N2c2ccc(CC(=O)O)cc2)c1 (stereo not shown) [CBK297723] | 69.8636 |
| O=C(CSc1ncn[nH]1)Nc1ncccn1 [CBK058488] | 69.1952 |
| CCn1c(SCC(=O)O)nnc1-c1ccco1 [CBK068633] | 102.227 |
| CCOC(=O)C(CNS(=O)(=O)c1ccc(F)cc1C)Cc1ccccc1 (stereo not shown) [CBK305427] | 86.9905 |
| Cc1ccc(NC(=S)NCCc2ccc(S(N)(=O)=O)cc2)c(C)c1 [CBK264870] | 109.764 |

| SMILES | % of control remaining |
| --- | --- |
| CN(CC(=O)Nn1cnnc1)S(=O)(=O)c1ccc(Br)cc1 [CBK268597] | 93.3504 |
| CC(=O)Nc1cccc(-c2nccnc2NS(C)(=O)=O)c1 [CBK050740] | 103.926 |
| O=C(Cn1cccc2cc(C3CCCNC3)nc1-2)N1CCCCCC1 (stereo not shown) [CBK285088] | 110.221 |
| CCOC(=O)C1CCCN(C(=O)CCn2c(=O)oc3cc(Cl)ccc32)C1 (stereo not shown) [CBK304516] | 71.9784 |
| Cc1nc2n(n1)C(C(=O)Nc1ccc(C)c(C)c1)CC(=O)N2 (stereo not shown) [CBK288223] | 92.6834 |
| Cc1nc(C)n(CCCNc2cc(C(C)C)nc3ccnn23)n1 [CBK307497] | 19.1271 |
| O=C(CCN1CCc2ccccc2C1)Nc1ccccc1F [CBK264202] | 103.04 |
| O=C(NCc1ccc(C(F)(F)F)cc1)[C@@H]1Cc2[nH]cnc2CN1C1CCOCC1 [CBK288981] | 112.693 |
| Cc1occc1-c1nnc(SC2CCCCN(C(=O)c3ccc(Cl)cc3)C2=O)n1C (stereo not shown) [CBK296990] | 111.329 |
| Cc1ncsc1C(=O)N1CCNCC1c1cccc(F)c1 (stereo not shown) [CBK305463] | 80.3741 |
| O=C(O)/C(Cl)=C(\Cl)C(=O)N1CCC2(CC1)OCCc1c2[nH]c2ccccc12 [CBK047035] | 101.835 |
| CS(=O)(=O)c1ccc(-c2ccc3ccc(=O)[nH]c3n2)cc1 [CBK073719] | 106.031 |
| Cc1cc(CNS(=O)(=O)c2cccc3nonc23)nn1C [CBK062157] | 90.8401 |
| COC(=O)c1sc(N2CCOCC2)c(C#N)c1N [CBK006430] | 60.0142 |
| COc1cc(C2NC(=O)NC(O)(C(F)(F)F)C2C(=O)c2ccccc2)ccc1OCc1ccccc1 (stereo not shown) [CBK264957] | 100.725 |
| C=CCNC(=O)CSc1nc(O)cc(=O)[nH]1 [CBK073298] | 89.8918 |
| O=C(O)c1cccc(Nc2nc(-c3ccccc3)nc3ccccc23)c1 [CBK263941C] | 109.924 |
| O=C(O)c1cccc(-c2ccc(/C=C3\SC(=S)N(Cc4ccco4)C3=O)o2)c1 [CBK265726] | 77.7192 |
| O=C(c1ccoc1)N1CCN(S(=O)(=O)c2ccc3c(c2)Cc2cc(S(=O)(=O)N4CCN(C(=O)c5ccco5)CC4)ccc2-3)CC1 [CBK262299] | 98.3315 |
| Cc1ccc2cc(CN(Cc3cccs3)C(=O)NCc3ccccc3)c(=O)[nH]c2c1C [CBK068496] | 90.1518 |
